The text below walks through data of PubChem BioAssay (NCI).

Values joined by “and” are separate entries in the source; they are usually repeats but may differ in a detail not shown here. Equal values may be shown once.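 Interpolation was linear, between the two tested concentrations surrounding the appropriate level; five concentrations were tested over 48 hours in 96-well plates. The concentration for 50% growth inhibition is given as GI50. At the TGI there is no net growth.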 Numbered stars: 1 amine (or outer) side, 2 acyl side, 3 side chain; on linkers, the order of the positions; unused ones are H or OH. Bridge positions count the residues as written; N and C are the ends. Square brackets hold non-standard residues; d marks the D form. Peptide text beside a SMILES is read from it. I, II: the chains in the order shown. ξ: configuration not given here. X50 = N=C(N)NCCC[C@@H](NC(=N)CCCCCCC(=N)N[C@H](CCCNC(=N)N)C(=O)[*:2])C(=O)[*:1]; dIgl = N[C@@H](C(=O)O)C1Cc2ccccc2C1; Hyp = O=C(O)[C@@H]1C[C@@H](O)CN1; ξIgl = NC(C(=O)O)C1Cc2ccccc2C1; ξOic = O=C(O)C1CC2CCCCC2N1; ξR = N=C(N)NCCCC(N)C(=O)O; ξP = O=C(O)C1CCCN1; ξS = NC(CO)C(=O)O

The subject of this assay is NCI-H322M lung. Put plainly: DTP human tumour cell line panel, 48 h.
Consider `COc1cccc2c1C(=O)c1c(O)c3c(c(O)c1C2=O)C[C@@](O)(C(C)=O)CC3S(=O)(=O)O` (stereo partly drawn), for which the TGI was more than 100 µM.
Regarding `Cc1ccc([Se](=C(C(=O)c2ccccc2)C(=O)c2ccccc2)c2ccc(C)cc2)cc1`, the TGI is 75.1 µM.
On the same count and under the same terms, the same measure for `NC1N=Nc2ccccc21` (stereo not drawn): more than 100 µM.
In turn, `COc1ccc2nc3c([N+](=O)[O-])ccc(NCCN(C)C)c3c(N)c2c1` registered a TGI of 2.71 µM.
On to `COC(=O)c1ccc2nc(-c3cc4ccccc4n3C)n(CCCCOc3cc4c(cc3OC)C(=O)N3CCC[C@H]3C=N4)c2c1`, for which the GI50 is 1.9 µM and the concentration for total growth inhibition (TGI) stood at 7.98 µM.
As to `C/C(CCC(=O)O)=N/Nc1ccc([N+](=O)[O-])cc1`, the GI50 was more than 100 µM and the total growth inhibition concentration (TGI) is more than 100 µM.
For the molecule `COC1OCC(O)C(NC(=O)N(C)N=O)C1O` (stereo not drawn), the concentration for total growth inhibition (TGI) was more than 100 µM.
For the molecule `COc1ccc(-c2cc(/C=C3\C(=O)Nc4cc(Cl)ccc43)[nH]n2)cc1`, the GI50 is 8.39 µM and the total growth inhibition concentration (TGI) is more than 100 µM.
Turning to `N=C(N)NCCCC(NC(=O)C1CC2CCCCC2N1C(=O)[C@H](NC(=O)C(CO)NC(=O)C(NC(=O)CNC(=O)[C@@H]1C[C@@H](O)CN1C(=O)C1CCCN1C(=O)C(CCCNC(=N)N)NC(=O)[C@@H](CCCNC(=N)N)NC(=N)CCCCCCC(=N)N[C@H](CCCNC(=N)N)C(=O)NC(CCCNC(=N)N)C(=O)N1CCCC1C(=O)N1C[C@H](O)C[C@H]1C(=O)NCC(=O)NC(C(=O)NC(CO)C(=O)N[C@@H](C(=O)N1C(C(=O)NC(CCCNC(=N)N)C(=O)O)CC2CCCCC21)C1Cc2ccccc2C1)C1Cc2ccccc2C1)C1Cc2ccccc2C1)C1Cc2ccccc2C1)C(=O)O` (stereo partly drawn) (I: [ξR][ξP][Hyp]G[ξIgl][ξS][dIgl][ξOic][ξR]-OH / II: [ξR][ξP][Hyp]G[ξIgl][ξS][dIgl][ξOic][ξR]-OH; linker I:N-II:N via X50), the TGI came to 5.34 µM.
Turning to `NC(=O)c1cccc2c(N[C@H](CN3CCC3)c3ccc(Cl)c(C(F)(F)F)c3)ncnc12`, the GI50 is 2.6 µM and the TGI was determined as 18 µM.
`O=C(Cc1ccccc1[N+](=O)[O-])C(CO)c1ccccc1[N+](=O)[O-]` (stereo not drawn) had a TGI of more than 100 µM.
For `O=C(/C=C/C12c3ccccc3C(c3ccccc31)C1C(=O)N(c3ccc(Cl)cc3)C(=O)C12)c1ccccn1` (stereo not drawn), the GI50 was 0.512 µM and the total growth inhibition concentration (TGI) was more than 35.8 µM.
In turn, `CCOC(=O)c1nc2ccc(OC)cc2c2c1Cc1ccccc1-2` showed a TGI of more than 100 µM.
`O=Cc1cccc2ccc3ccccc3c12` showed a total growth inhibition concentration (TGI) of 56.1 µM.
Still for that read-out and setting: the same measure for `Fc1cc(F)c(F)c(S)c1F`: more than 100 µM.
As for `CS(=O)(=O)CCNCc1ccc(-c2ccc3ncnc(Nc4ccc(OCc5cccc(F)c5)c(Cl)c4)c3c2)o1`, the 50% growth inhibitory concentration (GI50) is 0.379 µM and 0.187 µM and 0.164 µM; the TGI is > 10 µM and > 100 µM and 14 µM.
Take `COc1cc(C2c3cc4c(cc3OC(NNc3ccccc3)C2C)OCO4)cc(OC)c1OC` (stereo not drawn): the concentration for total growth inhibition (TGI) came out at 35.7 µM.
Take `O=C(CCC(=O)Nc1ccc(Cl)c(Cl)c1)CC(=O)c1ccc2ccccc2c1`: the TGI is more than 100 µM.
Take `Cc1c(C(=O)O)n2c(=S)[nH]nc2c2ccccc12`: the total growth inhibition concentration (TGI) is more than 100 µM.
Still for that read-out and setting: the same measure for `COC(=O)c1c(O)ccc2c1c1cc3ccccc3cc1n2Cc1cc(OC)cc(OC)c1`: more than 100 µM; for `CN1CCN(C(=O)CCC(=O)Nc2cc3c(c4ccccc24)-c2ccc4ccccc4c2C3)CC1`: 3.35 µM.
Same read-out and setting: in the case of `O=C1C=C(Nc2ccccc2C(=O)CC(=O)C(=O)Nc2ccc(Cl)cc2)c2ccccc2C1=O` it was 28.7 µM.

As usually defined, the TGI is the concentration at which net growth stops. A low value points to more potent growth arrest. A word on the GI50: it is the concentration at which growth is held to half of that of the control.
